# Data as given in PubChem BioAssay AID1347428 (National Center for Advancing Translational Sciences (NCATS), 2020).
# The whole screen tested about 91,000 compounds, of which about 290 (0.32%) were called active. Inconclusive means that the source gave no clear call. Such entries were picked first, then a sample of the others. Calls come from the whole dose curve; as a rule, active = well fitted inhibition curve with a large enough effect; inconclusive = small, poorly fitted or top-dose-only effect; inactive = no such curve, though single readings can be large or run the other way. A potency beside an inconclusive call is a rough fit, not a confirmed value.
# Biological target: Single-stranded DNA cytosine deaminase (Homo sapiens) (UniProt Q9GZX7)
# Test: Primary qHTS assay for inhibitors of Activation Induced Cytidine Deaminase (AID): AID signal; note: nearly all actives have a fitted effect of over 25% in size
# Conditions: AID deamination FRET fluorescence, UDG-coupled, 4 h; series mostly up to 115 µM
# Potency is the fitted concentration of half-maximal effect; tags give direction and shape of the fitted curve.
# Sequence of UniProt Q9GZX7 (Q9GZX7 whole entry, looked up): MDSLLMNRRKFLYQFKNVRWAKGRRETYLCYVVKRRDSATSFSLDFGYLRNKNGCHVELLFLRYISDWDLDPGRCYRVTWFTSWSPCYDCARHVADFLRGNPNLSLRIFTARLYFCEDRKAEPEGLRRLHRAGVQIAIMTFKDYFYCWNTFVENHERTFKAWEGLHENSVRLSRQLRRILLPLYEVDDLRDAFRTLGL
row,Structure (SMILES),Potency
1,CCCCN(Cc1ccccc1)C(=O)C1CCN(C(=O)c2csc(Nc3ccc(C)cc3)n2)CC1,"inconclusive: 79.4 µM [inhibitor, partial curve, poor fit]"
2,CC(=O)c1cccc(NC(=O)c2ccc3c(=O)n(-c4ccccc4F)cnc3c2)c1,inactive
3,CCOc1ccc(NC(=O)CC(C)C)c2cccnc12,inactive
4,COc1ccccc1-c1noc(-c2ccc(NC(C)C)c([N+](=O)[O-])c2)n1,"inconclusive: 28.2 µM [inhibitor, full curve]"
5,CCCCn1nc(C(=O)N(C)Cc2ccccc2N2CCCCC2)c2ccccc2c1=O,"inconclusive: 79.4 µM [inhibitor, single point]"
6,O=c1oc2ccccc2c(NC2CCCCC2)c1NS(=O)(=O)c1ccccc1,inactive
7,CCC(C(=O)N1CCN(c2ccccc2)CC1)n1nc(C)c2sc3ccccc3c2c1=O (centres undefined),"inconclusive: 20 µM [inhibitor, full curve, poor fit]"
8,O=C(c1ccc2c(Cl)c3c(nc2c1)CCCC3)N1CCN(c2ccccc2F)CC1,"inconclusive: 50.1 µM [inhibitor, partial curve, poor fit]"
9,O=C(/C=C/c1ccccc1Cl)c1cc(Br)ccc1O,"inconclusive: 39.8 µM [inhibitor, single point]"
10,S=c1[nH]c(-c2cccc(Cl)c2)cs1,inactive
11,Cc1cc(Nc2ccc(F)cc2)nc(-n2nc(C)cc2C)n1,"inconclusive: 56.2 µM [inhibitor, partial curve, poor fit]"
12,Cc1cccc(NC(=O)C2CCCN(c3nc4ccccc4s3)C2)c1C (centres undefined),"inconclusive: 89.1 µM [inhibitor, single point]"
13,COc1ccccc1N1CCN(CC(O)COc2ccc(C)cc2C(C)(C)C)CC1 (centres undefined),"inconclusive: 25.1 µM [inhibitor, full curve, poor fit]"
14,Cc1cc(C)c(OCC(=O)N(Cc2cccc(F)c2)Cc2ccco2)c(C)c1,"inconclusive: 22.4 µM [inhibitor, full curve]"
15,CCc1ccccc1NC(=O)CCc1ncc(-c2ccc(F)cc2F)o1,inactive
16,CC(=O)Nc1ccc(-c2csc(-c3ccccc3C)n2)cc1,inactive
17,O=C(CCc1nc(-c2ccccn2)no1)NCc1ccc(-n2cncn2)nc1,inactive
18,CCOC(=O)c1ccc(OCc2ccccc2C#N)cc1,inactive
19,COc1ccccc1-c1nnc(C2CCN(C(=O)c3ccc(Cl)cc3)CC2)o1,"inconclusive: 89.1 µM [inhibitor, single point]"
20,CC(=O)N1CCOc2cc(S(=O)(=O)N(C)Cc3ccccc3)c(Cl)cc21,"inconclusive: 44.7 µM [inhibitor, partial curve, poor fit]"
21,CCc1ccc(N(C)S(=O)(=O)c2ccc3[nH]cc(C(=O)NCC4CCCO4)c(=O)c3c2)cc1 (centres undefined),inactive
22,Cc1cccc(C(=O)N(Cc2ccco2)C2CC2)c1,inactive

row,Structure (SMILES),Potency
1,CCn1cc2nc(SCc3cc(C)ccc3C)n(Cc3ccc(OC)cc3)c(=O)c2n1,"inconclusive: 44.7 µM [inhibitor, partial curve, poor fit]"
2,CCCN1CCc2nc(N3CCN(c4ncccn4)CC3)ncc2C1,"inconclusive: 89.1 µM [inhibitor, single point]"
3,N#Cc1nc(C2CC2)oc1N1CCN(C(=O)c2cccnc2)CC1,inactive
4,COC(=O)C1=C(C)OC(N)=C(C#N)C1c1ccc(C(C)C)cc1 (centres undefined),inactive
5,Cc1ccnc(SCc2ccc(F)cc2)n1,inactive
6,Cc1cc2oc(C(=O)N(Cc3ccccc3F)C3CCS(=O)(=O)C3)c(C)c2cc1Cl (centres undefined),"inconclusive: 35.5 µM [inhibitor, full curve]"
7,CC1(C)CC(=O)C2=C(C1)NC(Nc1nc3ccccc3o1)=NC2c1cccc(Cl)c1 (centres undefined),inactive
8,COc1cc(OC)c(OC)cc1/C=C1\Oc2cc(OC(=O)C(C)(C)C)ccc2C1=O,inactive
9,CCOc1cccc2c(C)nc(Nc3nc(CSc4ccc(C)cc4)cc(=O)[nH]3)nc12,"inconclusive: 10 µM [inhibitor, full curve]"
10,COc1ccccc1NC(=O)c1sc2nc(N3CCOCC3)c3c(c2c1N)CC(C)(C)OC3,"inconclusive: 89.1 µM [inhibitor, single point]"
11,COc1ccc(-c2noc(CSc3nnc(C)n3-c3ccc(OC)cc3)n2)cc1,"inconclusive: 89.1 µM [inhibitor, single point]"
12,Cn1nnnc1SCCCNCc1ccccc1OCc1ccccc1Cl,"inconclusive: 20 µM [inhibitor, full curve]"
13,CCOc1ccccc1Oc1coc2cc(OC(=O)c3ccccc3F)ccc2c1=O,inactive
14,Cc1ccc(Cn2c(SCc3ccc(C(=O)N4CCCCCC4)cc3)nc3ccncc32)cc1,"inconclusive: 56.2 µM [inhibitor, partial curve, poor fit]"
15,CCCCCSc1nc2sc3c(c2c(=O)n1-c1ccccc1)CCN(C(C)=O)C3,active: 25.1 µM
16,COc1ccccc1C(=O)Nc1c(C(=O)N(C)Cc2ccccc2)sc2nc(C)c(Cl)c(C)c12,"inconclusive: 89.1 µM [inhibitor, partial curve, poor fit]"
17,O=Cc1ccc(O)c(Cl)c1,inactive
18,Cc1ccc2c(c1)-c1nc(-c3ccc4c(c3)NC(=O)CO4)cc(-c3ccc(F)cc3)c1CO2,"inconclusive: 2.82 µM [inhibitor, full curve, poor fit]"
19,COc1cccc(-c2cc(C(F)(F)F)nc(NCCc3ccccc3)n2)c1,"inconclusive: 39.8 µM [inhibitor, partial curve, poor fit]"
20,COc1ccc(-n2c(=O)c3c4c(sc3n(Cc3ccccc3Cl)c2=O)CCC4)c(OC)c1,"inconclusive: 100 µM [inhibitor, single point]"
21,CCOc1ccccc1NC(=O)c1c(NC(=O)C(C)Oc2ccc(Cl)cc2)sc2c1CCCCC2 (centres undefined),"inconclusive: 15.8 µM [inhibitor, full curve, poor fit]"
22,CC(C)(C)c1ccc(OCCn2cc(C(=O)c3ccco3)c3ccccc32)cc1,"inconclusive: 12.6 µM [inhibitor, full curve, poor fit]"
